The densities may have been worked out from excess volumes.
Test: xn = mol fraction of the nth substance listed
Settings: 101 kPa

c1ccc2sccc2c1 + CCCC[N+]1(C)CCCC1.N#C[C-](C#N)C#N
x1 = 1
Settings | mass density [kg/m3]
308.15 K | 1150.8
318.15 K | 1141.8
328.15 K | 1132.9
338.15 K | 1123.9
348.15 K | 1114.9
358.15 K | 1105.9

CCCC[N+]1(C)CCCC1.N#C[C-](C#N)C#N + c1ccc2sccc2c1
mass density [kg/m3]
Settings | x2 = 0 | x2 = 0.1112 | x2 = 0.2212 | x2 = 0.3565 | x2 = 0.5267 | x2 = 0.6111 | x2 = 0.6767
308.15 K | – | 1011.2 | 1022.8 | 1039.2 | – | 1078.1 | 1090.1
318.15 K | 994.7 | 1005.1 | 1016.5 | 1032.8 | 1057.2 | 1071.3 | 1083
328.15 K | 988.7 | 998.9 | 1010.3 | 1026.4 | – | 1064.4 | 1076
338.15 K | 982.7 | 992.9 | 1004.1 | – | 1043.9 | 1057.6 | 1069
348.15 K | 976.8 | 986.9 | 998 | 1013.7 | 1037.4 | 1050.8 | 1062.1
358.15 K | 971 | 980.9 | 991.9 | 1007.5 | 1030.8 | 1044.1 | 1055.1

Source: a compilation of properties of binary mixtures (doi:10.1007/s10953-014-0257-1)
